Hit rate of the full screen: of about 310,000 compounds, about 14,000 (4.5%) showed an effect of 50% or more. The effect is printed as a negative number. Some of the results follow.
Target: human ether-à-go-go-related gene (hERG) potassium channel (human, UniProt Q12809)
Assay: primary screen, population patch clamp on CHO cells stably expressing hERG
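Further: peak tail current of the secondary pulse compared with the same well before compound.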

Sequence of human ether-à-go-go-related gene (hERG) potassium channel (Q12809 whole entry, looked up): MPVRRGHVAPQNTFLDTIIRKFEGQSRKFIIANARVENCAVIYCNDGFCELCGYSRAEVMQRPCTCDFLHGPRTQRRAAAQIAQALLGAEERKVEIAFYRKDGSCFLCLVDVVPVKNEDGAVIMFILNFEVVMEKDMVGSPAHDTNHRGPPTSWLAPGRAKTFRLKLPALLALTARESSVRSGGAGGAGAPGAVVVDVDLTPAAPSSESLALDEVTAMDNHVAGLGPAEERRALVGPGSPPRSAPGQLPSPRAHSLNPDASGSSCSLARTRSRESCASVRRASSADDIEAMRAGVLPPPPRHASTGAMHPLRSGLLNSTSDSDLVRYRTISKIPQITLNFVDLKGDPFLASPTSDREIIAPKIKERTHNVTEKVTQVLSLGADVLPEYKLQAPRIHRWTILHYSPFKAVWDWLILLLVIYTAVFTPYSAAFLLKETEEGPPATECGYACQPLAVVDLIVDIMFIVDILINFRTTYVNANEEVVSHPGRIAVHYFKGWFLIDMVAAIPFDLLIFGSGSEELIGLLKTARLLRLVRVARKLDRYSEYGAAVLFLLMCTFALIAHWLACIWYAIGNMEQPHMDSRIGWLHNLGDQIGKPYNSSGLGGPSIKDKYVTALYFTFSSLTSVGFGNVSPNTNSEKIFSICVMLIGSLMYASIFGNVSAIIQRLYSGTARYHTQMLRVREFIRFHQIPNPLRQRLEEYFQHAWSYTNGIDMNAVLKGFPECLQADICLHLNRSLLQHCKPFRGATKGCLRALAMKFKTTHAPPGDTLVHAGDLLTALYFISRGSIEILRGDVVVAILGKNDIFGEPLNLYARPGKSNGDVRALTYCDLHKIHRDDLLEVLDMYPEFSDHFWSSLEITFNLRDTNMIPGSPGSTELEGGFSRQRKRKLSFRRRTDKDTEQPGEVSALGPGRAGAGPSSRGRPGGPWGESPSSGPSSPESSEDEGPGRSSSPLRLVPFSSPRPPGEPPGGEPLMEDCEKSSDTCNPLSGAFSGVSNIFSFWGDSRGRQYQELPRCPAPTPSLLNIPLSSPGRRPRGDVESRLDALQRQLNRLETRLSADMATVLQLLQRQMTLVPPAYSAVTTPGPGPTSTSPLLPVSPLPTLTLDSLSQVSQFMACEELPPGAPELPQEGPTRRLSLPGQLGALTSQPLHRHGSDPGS

SMILES	hERG current change (%, negative = inhibition) at 10uM
CC(C)C[C@@H](CSc1ccc(Br)cc1)N1CCN(C)CCC1=O	-64.7%
COc1ccc(-c2csc(NC(CO)c3nc4ccccc4n3CCOCCO)n2)cc1 (stereo not shown)	-43.3%
O=C(O)c1cc(-c2ccccc2)n(-c2ccc(Cl)cc2Cl)n1	21.5%
O=C(CN(C1CCCCC1)S(=O)(=O)c1ccc(Cl)cc1)NCc1cccnc1	-74.4%
C=CCNC(=O)CN1CCC(c2nc3ccccc3[nH]2)CC1	7.7%
COc1ccccc1C=NC(CO)C(O)c1ccc([N+](=O)[O-])cc1 (stereo not shown)	-0.196%
COC(=O)Nc1nnc(Cc2ccc(Cl)cc2)s1	-7.28%
COC(=O)CC(NC(=O)CN1CCN(c2ccc(F)cc2)CC1)c1cccc(F)c1 (stereo not shown)	-43.9%
Cc1ccc(S(=O)(=O)N2CCN(c3ccccc3)CC2)cc1C(=O)NC1CCCCC1	-0.43%
COc1ccc(CCC(=O)Nc2cnc3ccccc3c2)cc1	-13%
O=C(NCCCn1ccnc1)/C(=C/c1ccc(Cl)cc1)NC(=O)c1ccccc1	-74.7%
CCOC(=O)c1nn(-c2ccccc2C)c(=O)cc1OCC(=O)Nc1cccc(OC)c1	13.2%
Cc1ccc(NC(=O)CCCCCN2C(=O)[C@@H]3Cc4ccccc4CN3C2=O)c(C)c1	2.68%
O=C(CN1CC(=O)Oc2ccccc21)OCC(=O)c1ccc(Br)cc1	14.7%
Cl.Fc1cccc(Nc2ncnc3sc4c(c23)CCC4)c1	-19.2%
COc1cc(C2c3c([nH]c(=O)[nH]c3=O)Nc3ccc4ccccc4c32)cc(OC)c1OC (stereo not shown)	11%
CN(CC(=O)N1CCN(c2ccc(F)cc2)CC1)S(=O)(=O)c1ccc(F)cc1	-53.2%
CCC(C)Nc1nc2c(c(=O)[nH]c(=O)n2C)n1CCOc1ccccc1 (stereo not shown)	-24.9%
O=C(NCC1CCCO1)c1ccc(C(=O)NCC2CCCO2)cc1 (stereo not shown)	0.974%
O=C(Nc1cccc(NC(=O)c2ccco2)c1)c1ccc2c(c1)OCO2	-37.5%
C#CCOC(=O)c1ccc(-n2cncn2)nc1	-0.64%
Cc1ccc2[nH]c(C)c(CCNC(=O)c3c(N)no[n+]3[O-])c2c1	10.1%

SMILES	hERG current change (%, negative = inhibition) at 10uM
O=C(CCn1c(=O)[nH]c2ccsc2c1=O)NCCc1ccc(Cl)cc1	-0.226%
CCOC(=O)c1nn2c(C(F)(F)F)cc(-c3ccc(OC)cc3)nc2c1Br	21%
O=C(NCCCn1ccnc1)/C(=C/c1ccc(F)cc1)NC(=O)c1ccccc1	-75.6%
CC12CCC(=O)N1c1c(sc3nc(N4CCOCC4)c4c(c13)CCCC4)C(=O)N2 (stereo not shown)	-37.4%
CN(C)CCCNC(=O)c1cc2c3ccccc3n(C)c2s1	-40.1%
COc1ccccc1-c1nn2c(-c3ccco3)nnc2s1	-5.22%
COc1ccc(CCNc2nc(-c3cccnc3)cs2)cc1OC	10.7%
CCN1CCN(C(=S)c2ccc(SC)cc2)CC1	-42.9%
COC(=O)c1c(NC(=O)CN2C(=O)NC3(CCCCC3C)C2=O)sc2c1CCC2 (stereo not shown)	-25.7%
O=C(Nc1cc(S(=O)(=O)N2CCCCCC2)ccc1OCC(F)(F)F)c1ccc(=O)[nH]c1	-22.1%
Cc1cc(NC(=O)c2cc3n(n2)C(C(F)(F)F)CC(c2ccco2)N3)no1 (stereo not shown)	4.63%
COC(=O)[C@H](C)NC(=O)COc1ccccc1	-15.1%
Cc1cnc(C(=O)OCC(=O)Nc2ccc(Cl)cc2Cl)cn1	-5.56%
CCOC(=O)/C(=N\Nc1cccc(C(F)(F)F)c1)N(CCOC)CCOC	-14.6%
Cc1ccc(Cn2ccc(NC(=O)c3noc4c3CCc3ccccc3-4)n2)cc1	21.5%
O=C(CSc1nc2ccccc2c(=O)n1CCC(=O)N1CCCCC1)NCc1ccccc1	-70.4%
COc1ccc(S(=O)(=O)NC(CC(=O)NCc2ccccc2OC)c2ccco2)cc1 (stereo not shown)	-23.6%
Cc1sc2nc(COC(=O)CNC(=O)c3ccc(C(C)(C)C)cc3)[nH]c(=O)c2c1C	14%
COc1ccc(NC(=O)c2c(C(F)(F)F)nn(C)c2Cl)cc1	10.9%
O=C(Nc1ccccc1)C1=C[C@H](C2CCCCC2)C[C@H](OCc2ccc(CO)cc2)O1	10.3%
Cc1ccc(OCCCC(=O)N(C)CC(=O)Nc2ccccc2Cl)cc1	-7.88%

Source: publication PMC4336329 (PLoS ONE, 2015)
